Source: the supplement of paper PMC12217912
The other results are listed elsewhere or left out. The full chains were built here from the parent and the listed change. Values near 0.05 are background.

B1: TEV protease; numbered along this chain (parent)
chain: MGESLFKGPRDYNPISSSICHLTNESDGHTTSLYGIGFGPFIITNKHLFRRNNGTLVVQSLHGVFKVKDTTTLQQHLVDGRDMIIIRMPKDFPPFPQKLKFREPQREERICLVTTNFQTKSMSSMVSDTSCTFPSGDGIFWKHWIQTKDGQCGSPLVSTRDGFIVGIHSASNFTNTNNYFTSVPKNFMELLTNQEAQQWVSGWRLNADSVLWGGHKVFMVKPEEPFQPVKEATQL

Variants of: B1
Test: raw area under fraction-flipped curve 0-4 h after induction (AUC4h, not background-subtracted), DNA-recorder readout of cleavage of the substrate (dimensionless); higher = more cleavage of the substrate by the protease variant
Conditions: temperature: 34 °C; time window: 0-4 h after rhamnose induction
Description: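 In vivo DNA recorder in E. coli TOP10(DE3) ΔrhaA at 34 °C. Each TEVp single-site mutant (parent TEVp 0) is paired with a single-site variant of the 7-mer TEVs (canonical ENLYFQ|S). The substrate sits between flexible linkers in a Bxb1-sfGFP-TEVs-SsrA fusion, so cleavage stabilises Bxb1 and speeds flipping of a recombination array, read by NGS. The value is the raw area under the fraction-flipped curve over 0-4 h after rhamnose induction (AUC4h), with ≥20 reads per time point. It is not background-subtracted; inactive controls average about 0.047.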
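Also: Bxb1 expression induced with 0.2% (w/v) L-rhamnose at OD600 near 0.5, cultures sampled hourly, flipped fraction per protease–substrate barcode pair counted by paired-end Illumina sequencing.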

Variant	area with substrate ENLYDQS	area with substrate ENLYEQS	area with substrate ENLYGQS	area with substrate ENLYHQS	area with substrate ENLYIQS	area with substrate ENLYKQS	area with substrate ENLYMQS	area with substrate ENLYNQS	area with substrate ENLYQQS	area with substrate ENLYRQS	area with substrate ENLYSQS	area with substrate ENLYPQS	area with substrate ENLYTQS	area with substrate ENLYWQS	area with substrate ENLYVQS	area with substrate ENLYYQS	area with substrate ENLYLQS
K100I	0.0581	0.067	0.0618	0.0569	0.116	0.0714	0.101	0.0761	0.0448	0.052	0.0621						
E103H	0.0644	0.0373	0.0723	0.0645		0.0573		0.0714	0.0518		0.072	0.0709	0.084	0.0678			
V183R	0.0357	0.0542	0.0504	0.0505	0.0627	0.0456	0.0478	0.0487	0.063			0.0441		0.0557			
G214Y	0.0588	0.0551			0.0955			0.0664	0.0516		0.0664						
T31D	0.0658	0.0657	0.0613	0.0675	0.173	0.0576	0.0989	0.0648	0.0438	0.0808	0.0696	0.0778		0.0849	0.137	0.0718	
G138N	0.0575	0.0559	0.0598			0.0668	0.0666			0.0571	0.0543	0.0819			0.153		
I145Q	0.0648	0.0541	0.053	0.0683	0.101	0.0557	0.0672	0.0529		0.067		0.0547	0.0771	0.0443	0.0849	0.0526	
T71P	0.0459	0.0658		0.0453		0.052		0.0855				0.0546		0.0798	0.0932	0.0633	
T174P	0.0436	0.07	0.0663		0.0612		0.0813	0.0541		0.0563					0.084	0.0597	
E189A	0.108	0.0641	0.0704						0.0696			0.0579	0.0861			0.0518	0.0927
R81F	0.0621	0.0621	0.0602	0.0693	0.0929		0.0722	0.0568	0.0598	0.0738	0.0579	0.0537		0.0816	0.0708	0.0489	
W212Q	0.0672		0.0541	0.0793	0.0791	0.0618	0.0734	0.0635		0.0693	0.0537	0.0509		0.087	0.0808	0.111	
W199C	0.0492	0.0642		0.0527	0.0717	0.0558		0.063	0.0502		0.0584	0.0639	0.0636	0.0568			0.0816
F180G	0.0475	0.0581	0.0473	0.0523	0.0681	0.041	0.0615	0.0638		0.0436		0.0463		0.0739			0.0452
S130W	0.0582	0.0662	0.0618	0.0591	0.0913	0.0573		0.0665	0.0919	0.0587		0.0774	0.0629	0.0644	0.0761	0.0607	
